The RNAGym collection of RNA variant scans (doi:10.7554/elife.90254)
The source gives no read counts; variants with many changes may rest on few reads.

B1: LINE1-mini (parent)
chain: GGCAGAGCUCAACACAGCGUGGCAAAGUGGCUGUGGCUAGACUGCC

Variants of: B1
Experiment: self-cleavage, relative activity (ratio to wild type); higher = more cleavage; in vitro, sequencing; the parent is a self-cleaving ribozyme
Variant C3A C10U G17U G21C G33C has a self-cleavage of 0.05. Work on A11G C13A G29U U34A G36C yielded a self-cleavage of 0.03. In the case of G1U A16C C37A, the self-cleavage is reported as 0.09. G2U U9G G17A C42U showed a self-cleavage of 0.07. Variant C8A G17A A25G G27A has a self-cleavage of 0.13. With G2U C3A C10A G22C G27A the self-cleavage was 0.03. Work on A4G G21C G29U G40C yielded a self-cleavage of 0.07. G33A U34G C46A showed a self-cleavage of 0.01. Work on C15A C18U C23A G30U yielded a self-cleavage of 0.04. Work on G5C C10U C13G A14C yielded a self-cleavage of 0.03. In the case of G17A G29U U32C, the self-cleavage is reported as 0.27. Work on C3U U9G C23A yielded a self-cleavage of 0.05. Work on C3U G30A G33A yielded a self-cleavage of 0.1. C10U A14G G29U C42G showed a self-cleavage of 0.05. With A14U G17A C18U U28A G33U the self-cleavage was 0.03. In the case of A25G C31A A41C, the self-cleavage is reported as 0.02. G2A A6G C10A C37A gave a self-cleavage of 0.01. A6U C10A G40A gave a self-cleavage of 0.01. With A6C C15G G21U A24C G40A the self-cleavage was 0. C15U A16G G36C gave a self-cleavage of 0.1. C8A C10A C13A G17U G33U showed a self-cleavage of 0. C3A U20G C31A U32G A41G C45A gave a self-cleavage of 0.04. In the case of A11U C23U A25G G36A, the self-cleavage is reported as 0. For A12U C18A G19C G27C, the self-cleavage was 0.08. G21U C37G A39G showed a self-cleavage of 0.02. With C8A C23U G30U the self-cleavage was 0.21. For G5C A14G A24C G27C C37G, the self-cleavage was 0.03. In the case of G1U C13A C18U C23G G27A, the self-cleavage is reported as 0.1. With C3A A4U G7A C37A C42G the self-cleavage was 0.01. C8A A25U G40A showed a self-cleavage of 0.02. For G1U C13G G19U G36U G44U, the self-cleavage was 0.04. A4G G7A C15U A25U G35C U38A showed a self-cleavage of 0.37. Variant G19A A24U A25C G44A has a self-cleavage of 0.12. With C23U G36A A39C the self-cleavage was 0.09. Work on G1C A4U C13G G21U yielded a self-cleavage of 0.05. A11U A25U U28C C31G U38A gave a self-cleavage of 0.02. For G19U G27U U28C C37U C42A, the self-cleavage was 0.04. Work on G19U G22U C23A yielded a self-cleavage of 0.34. In the case of G2C G7U C23G U32G, the self-cleavage is reported as 0.32. C8A G22C A25U gave a self-cleavage of 0.4. With G27A G33U C45U the self-cleavage was 0.14. Variant A4G U34G A39C has a self-cleavage of 0.03. A14C A16U C46A gave a self-cleavage of 0.02. For G1C C8U A26G G29U, the self-cleavage was 0.09. C3U G36U G40C showed a self-cleavage of 0.08. For G7A G40C G44A, the self-cleavage was 0.2. With C3U G5U C18U G29C U32G the self-cleavage was 0.02. Variant A24G C45A C46A has a self-cleavage of 0.59. With G5A C10G C37A the self-cleavage was 0.02. Work on A6C U9A A11C G22C G36A G40C yielded a self-cleavage of 0.01. With G5C G27C G35C the self-cleavage was 0.07. With A6C A11U A26C G29U G36U the self-cleavage was 0. G7A C15U C37U showed a self-cleavage of 0.1. Variant G2U C13A A14C has a self-cleavage of 0.04. For C8G C15U C18U G21C G30C C37G, the self-cleavage was 0.08. Work on G1U C3G U20G yielded a self-cleavage of 0.19. Variant A14U C23U G35U has a self-cleavage of 0.05. For G35U C37G C46U, the self-cleavage was 0.04. U32A A39C C42U showed a self-cleavage of 0.04. Work on C18A G22U G29A G36C A41U yielded a self-cleavage of 0.02. G5A U9A C18A G21A A26G U38G gave a self-cleavage of 0.18. C3A G5U G27U gave a self-cleavage of 0.11. Work on G5A A6C C18U yielded a self-cleavage of 0.82. Work on G1C A25U C37G U38C C42A C45A yielded a self-cleavage of 0. With C18U G22U C37G the self-cleavage was 0. Work on G29U G40U C46A yielded a self-cleavage of 0.14. In the case of A14C A24G A26U G33U G40C, the self-cleavage is reported as 0.02. With C8A C10A C13A C23U the self-cleavage was 0.03. Work on G27C U34C C45A yielded a self-cleavage of 0. A4U G19U U28A U38C gave a self-cleavage of 0.03. C8G C10U A26C gave a self-cleavage of 0.03. With A24C G33C G36A C45G the self-cleavage was 0.01. In the case of G17A U28G C31A G35U, the self-cleavage is reported as 0.04. C10G G19C U43C showed a self-cleavage of 0.02. G2C C18A U32C A41C gave a self-cleavage of 0.02. G7C A14U G27A C42A showed a self-cleavage of 0.04. With G2U A6U C10U the self-cleavage was 0.01. Work on A4C C8U G17A C23U C37A yielded a self-cleavage of 0.74. With A6U U9C C18A A25U C37U C46G the self-cleavage was 0.02. In the case of A24U C31U G33A C46A, the self-cleavage is reported as 0.03. C13A A24C G44C showed a self-cleavage of 0.02. Work on C15A G17C C23U U28A C31G A39G A41G yielded a self-cleavage of 0. Work on G21U G22A U32A yielded a self-cleavage of 0.19. Variant G2A A4C A14G U20A G33A has a self-cleavage of 0.06. Work on C13A A25U C45U yielded a self-cleavage of 0.18. With G1C U9C A25G U34C U38G the self-cleavage was 0.01. Variant U9A C13A C23A G36A A41G has a self-cleavage of 0.91. For C3U G5A C13G U32G, the self-cleavage was 0.07. Variant C10G U43A G44A has a self-cleavage of 0. A4U G7U C18A U34G G35U G36A gave a self-cleavage of 0.03. C3G A6G C23G C37A showed a self-cleavage of 0.2. G5U G7C G29A G30U gave a self-cleavage of 0.2. G2A C23A G44U gave a self-cleavage of 1.54. With C3A C23U G30C G36U G44A the self-cleavage was 0.11. C8G G17C U32C G33C G40A gave a self-cleavage of 0.01. G17A G22U A39U showed a self-cleavage of 0.29. C10U A12G U20G G21U C45A showed a self-cleavage of 0.03. For G2A C3U C42A, the self-cleavage was 0.15. With U9A U20C A26C the self-cleavage was 0.03. U9A U32C G35A gave a self-cleavage of 0.35. Work on C18U C23A U28C C31U yielded a self-cleavage of 0.14. G2U A12U A39C gave a self-cleavage of 0.04. Variant C3U G5C U9C A11C G22C A26U C37A has a self-cleavage of 0.01. Work on G1C G19U U43C yielded a self-cleavage of 0.02. A12G C13U G27U U28C gave a self-cleavage of 0.02. C3U A12U G33U gave a self-cleavage of 0.12. Variant G1A C13G A24U has a self-cleavage of 0.07. For C10A A14U C45A, the self-cleavage was 0.05. Work on G27U U34A C37A yielded a self-cleavage of 0. Work on C13A G33A G35C G44U C46U yielded a self-cleavage of 0.02. In the case of G1A C15A G19U U20C A24U G35A C46A, the self-cleavage is reported as 0.01. C3G C31A C46U showed a self-cleavage of 0.08. In the case of C10A G30U U32G G44C, the self-cleavage is reported as 0.02. For C8U C13G G44C, the self-cleavage was 0.1. In the case of C3U U28A G35A, the self-cleavage is reported as 0.04. Variant G1U G7U U20C has a self-cleavage of 0. With G21U U34A G40C the self-cleavage was 0.05. C3A G17C A26G U34G G40C showed a self-cleavage of 0.01. G1U G30U U38A gave a self-cleavage of 0.26. Variant G5U A11G G27A has a self-cleavage of 0. Variant C3A C10A U34A U38C U43C has a self-cleavage of 0.04. For A6C A14G A39C C45U, the self-cleavage was 0. For A11C G35C C37U C42G C46U, the self-cleavage was 0. For U9G C18G G22A, the self-cleavage was 0.03. In the case of G19U A26U C46G, the self-cleavage is reported as 0.85. A4G A11C C42A showed a self-cleavage of 0. Work on C8A A12C C15A C18U yielded a self-cleavage of 0.03. In the case of A4G G7C C13A C45A, the self-cleavage is reported as 0.41. With A4U A6C G19U U20C U32G the self-cleavage was 0.05. For G21A U34A G35A C46A, the self-cleavage was 0.01. For G36U A39G A41U, the self-cleavage was 0.02. With G1C U9C C10U C15A G35U G44A the self-cleavage was 0.01. For A6G C18U U20A, the self-cleavage was 0.04. For G5U G19A U32G, the self-cleavage was 0.1. Work on C13U G17C G21A yielded a self-cleavage of 0.04. C18U G19A G21U U28A G40U showed a self-cleavage of 0.05. With G1C U20A A25U U34C the self-cleavage was 0.04. G5U A12U U34A C37G gave a self-cleavage of 0.03. A6G C10A G40A A41G G44U showed a self-cleavage of 0.02. For C3U A14U C18A C31U, the self-cleavage was 0.01. With G7C G17A U28G the self-cleavage was 0.05. For A6U G7U C37G, the self-cleavage was 0.01. A16C G40A A41G gave a self-cleavage of 0.03. Variant G27A U38C A39G has a self-cleavage of 0.4. G30A C37A G40A showed a self-cleavage of 0.28. Work on A14G C23G G27C yielded a self-cleavage of 0.13. C10A C18A A24G G33A C37A showed a self-cleavage of 0.01. A12G G19U G40A gave a self-cleavage of 0.03. For G2C A12C G21U, the self-cleavage was 0.01. G27C U34A C46A showed a self-cleavage of 0.09. With G7C U9G G19U the self-cleavage was 0.05. Variant G17A G22C G33A G36U has a self-cleavage of 0.01. For G1U G17A G40U, the self-cleavage was 0.02. In the case of C13A C23G G27A U32A U38C, the self-cleavage is reported as 0.02. In the case of G29C C31G C37A, the self-cleavage is reported as 0.04. With G19U A26G U38G A39U the self-cleavage was 0.01. Work on C10A G21U G27A U34A G36C yielded a self-cleavage of 0.01. With C8A A14G C42U the self-cleavage was 0.27. In the case of G1A G7A A24U, the self-cleavage is reported as 0.38. Variant C3A G5U C8G C10G has a self-cleavage of 0.05. In the case of C8U C37G U38C, the self-cleavage is reported as 0.16. Variant A4U G27A C46A has a self-cleavage of 0.12. For A16C G21U A26C, the self-cleavage was 0.02. A12U G30C C31A showed a self-cleavage of 0.09. Variant C3A A12G U20G U43A C46U has a self-cleavage of 0.02. With C23U U28C U34C G35U G36C C45U the self-cleavage was 0.04. G35A C37A U38G U43A G44A showed a self-cleavage of 0.
